# According to PubChem BioAssay AID743279 (National Center for Advancing Translational Sciences (NCATS), 2014):
# In all, about 360,000 compounds went through this assay and about 17,000 (4.7%) were called active. Inconclusive results, whose numbers are uncertain, are shown with a selection of clear calls. Cut-off read from the data, not from the text of the source: active = activity change below about -50%; inconclusive = mostly about -30% to -49%; inactive = weaker than that.
# Assay: qHTS for Inhibitors of Inflammasome Signaling: IL-1-beta AlphaLISA Primary Screen
# Conditions: THP-1 LPS/ATP IL-1B secretion, 16 h; at 57.5 µM, stronger effect = lower value
# Procedure, shortened: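 THP-1 cells pretreated 1 hr with compounds (up to 57.5 uM final), then stimulated with LPS (250 ng/mL final) plus ATP (1.25 mM final); secreted IL-1B measured by AlphaLISA after 16 hr, decreased signal indicating inhibition.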
# % is set by controls: 0 for no effect and ±100 for the full control effect.
row,SMILES,activity change
1,COc1ccccc1N1CCN(C(=O)C2CCN(S(=O)(=O)c3ccc4c(c3)CC(C)N4C(=O)C3CC3)CC2)CC1 (configuration not stated),active: -52.6%
2,O=C(Nc1ccc(N=Nc2ccccc2)cc1)c1ccccc1Cl,active: -66.5%
3,CCN(CC)Cc1c(O)ccc2occ(C(=O)c3ccccc3)c12,inactive: 0%
4,COc1cccc(/C=C/c2nc(S(=O)(=O)c3ccccc3)c(N(C)C)o2)c1,inconclusive: -39.8%
5,COc1ccc(/C=N/NC(=O)CNC(=O)COc2ccccc2)cc1,inactive: -6.53%
6,COc1ccc2c3c(c(=O)oc2c1OCC(=O)C(C)(C)C)CCCC3,inconclusive: -30.7%
7,Cc1ccc(-c2ccc(CCC(=O)O)n2NC(=O)c2ccc([N+](=O)[O-])cc2)cc1,inactive: 2.79%
8,O=C(COc1ccc2c3c(c(=O)oc2c1)CCCC3)NCc1ccccn1,active: -50.2%
9,O=c1cc(N2CCCCC2)c(-c2ccccc2)n[nH]1,inactive: 40.6%
10,O=C(Nc1cccc(-c2csc(Nc3ccc(Cl)cc3)n2)c1)c1cccc(C(F)(F)F)c1,inconclusive: -31.9%
11,COc1ccc(-c2nnc(CSc3nc4ccccc4c(=O)n3CC3CCCO3)o2)cc1OC (configuration not stated),inactive: 10.8%
12,Cc1ccc(N2C(=O)CS/C2=C(\C(Cl)=C(Cl)Cl)[N+](=O)[O-])cc1,inconclusive: -41.5%
13,CC(C)n1ncc2c(C(=O)NCc3ccccc3CN(C)C)cc(C3CC3)nc21,inconclusive: -36.5%
14,CCNc1sc(S(C)(=O)=O)nc1S(=O)(=O)c1ccc(Cl)cc1,inconclusive: -33.3%
15,Cc1ccc(C)n1-c1ccc(N2CCOCC2)cc1,inconclusive: -34.7%
16,CCCCNC(=S)N1CCn2cccc2C1c1ccc(F)cc1 (configuration not stated),active: -86.1%
17,COc1ccc2c(c1)c(C(O)CN1CCC(Cc3ccccc3)CC1)c(C)n2C (configuration not stated),active: -89.6%
18,C[C@@H]1CCC(=O)N(CC[C@H](Sc2ccccc2)c2ccccc2)CC1,inactive: 0%
19,COc1cccc(-c2nc(CS(=O)(=O)CC(=O)NCCCN3CCOCC3)c(C)o2)c1,active: -77.1%
20,CC(C)COc1ccc(/C(=N/O)c2ccccc2)cc1,active: -78.9%
21,O=C1NN=C(c2ccccc2)CC1c1ccc(Cl)cc1Cl (configuration not stated),inconclusive: -39.6%
22,CNC(=O)c1[nH]cnc1C(=O)N[C@@H](CCCCNC(=O)OC(C)(C)C)C(=O)OC(C)(C)C,inactive: 2.39%

row,SMILES,activity change
1,O=C(NCCCN1CCOCC1)c1ccc2c(c1)N(Cc1c(F)cccc1Cl)C(=O)c1ccccc1S2,active: -52.3%
2,COc1ccc(N(C)S(=O)(=O)c2cccc(C(=O)NC3CCCC3)c2)cc1,inconclusive: -40.6%
3,O=C(CN1CCN(S(=O)(=O)c2ccc3ccccc3c2)CC1)N1CCc2ccccc2C1,inconclusive: -39.3%
4,CC(C)(C)NC(=O)[C@@H]1C[C@@H]2CCCC[C@@H]2CN1C[C@@H](O)[C@H](Cc1ccccc1)NC(=O)[C@H](CC(N)=O)NC(=O)c1ccc2ccccc2n1,inconclusive: -49.3%
5,COc1ccc(S(=O)(=O)N2CCN(c3cnccn3)CC2)cc1OC,inconclusive: -42.4%
6,Cc1cc(C)c2nc(N(CCCN(C)C)C(=O)C3=COCCO3)sc2c1,inconclusive: -46.5%
7,O=c1c2ccccc2nc(/C=C/c2cccc(Br)c2)n1CCCO,active: -85.5%
8,Cc1ccc(C)c(OCc2cc(C(=O)NC3CCN(Cc4ccccc4)CC3)no2)c1,inconclusive: -31.6%
9,Cc1ccc2c(c1)C(=O)C(=O)N2Cc1ccccc1,inactive: 46.9%
10,CCC(C)NCC(O)(c1ccc(Cl)cc1)c1ccc(Cl)cc1 (configuration not stated),inconclusive: -36.4%
11,O=C1OC(c2ccccc2)=NC12CC2c1ccc(Cl)cc1 (configuration not stated),inactive: -19.7%
12,CCCCn1nnnc1C1(C)CCC(=O)N1Cc1cccnc1 (configuration not stated),inactive: 73.1%
13,Cc1c(C(=O)NCc2ccccn2)sc2nc(-c3ccccc3)cn12,inactive: -26.9%
14,COC(=O)C1=C(C)NC(C)=C(C(=O)OC)C1C(=O)OCC(=O)c1ccc(Br)cc1,inconclusive: -35.3%
15,CN(Cc1ccccc1)S(=O)(=O)c1ccc(Cl)c(C(=O)N2CCOCC2)c1,inactive: 24.8%
16,CCOC(=O)c1cccnc1SCC(=O)N(CC)c1cccc(C)c1,inactive: 1.3%
17,c1csc(-c2cn3ccc4ccccc4c3n2)c1,active: -62%
18,O=C(CC1C(=O)NCCN1CC1CCCCC1)NCc1ccc(F)cc1F (configuration not stated),active: -65.7%
19,C[C@H](CO)N1C[C@H](C)[C@H](CN(C)S(=O)(=O)c2ccccc2)Oc2ccc(NC(=O)NC3CCCCC3)cc2CC1=O,inconclusive: -40%
20,O=C(NCc1ccccc1)c1ccc(C(=O)N(C2CCCCC2)C2CCCCC2)cc1,inconclusive: -49.8%
21,OCCN1C2=NCCCN2c2ccccc21,inactive: 27.4%
22,O=[N+]([O-])c1ccc(N(CC2CO2)S(=O)(=O)c2ccccc2)cc1 (configuration not stated),active: -72.5%

row,SMILES,activity change
1,Oc1c(Cl)cc(Cl)cc1CNc1ccccn1,inconclusive: -35.3%
2,CCOc1ccc(NC(=S)N2CCN(C/C=C/c3ccccc3)CC2)cc1,inconclusive: -37.1%
3,Cc1ccc(CNc2ccc3c(c2)nc(C)n3C)cc1,inconclusive: -32.3%
4,COc1ccc(NC(=O)c2c(C)noc2C(C)C)cc1S(=O)(=O)N1CCCCC1,inactive: 6.84%
5,COC(=O)c1cc(NC(=O)c2c(F)c(F)c(F)c(F)c2F)cc(C(=O)OC)c1,inconclusive: -30.5%
6,CCn1c(SCc2c(F)cccc2Cl)nnc1-c1ccco1,inconclusive: -42.3%
7,O=C(CCl)N1N=C(c2ccco2)CC1c1cccs1 (configuration not stated),active: -105%
8,CCCCn1c(=N)n(CC(=O)c2ccco2)c2ccccc21,inconclusive: -33.7%
9,C[C@H]1CN([C@@H](C)CO)C(=O)CCCn2cc(nn2)CO[C@@H]1CN(C)C(=O)Nc1ccc(-c2cccs2)cc1,inactive: 0%
10,CNS(=O)(=O)c1ccc(NC(=O)C2c3ccccc3Oc3ccccc32)cc1,inactive: 9.52%
11,CN(C)C(=O)CN1C(=O)NC2(CCCc3ccccc32)C1=O (configuration not stated),inactive: -9.7%
12,NC(=O)c1ccc(Nc2ccc([N+](=O)[O-])cc2[N+](=O)[O-])cc1,inconclusive: -35.7%
13,O=C(/C=C/c1ccc([N+](=O)[O-])cc1)c1ccccc(=O)c1O,active: -98%
14,C=CCn1c(SCC(=O)Nc2ccc(O)cc2)nc2sc(CC)cc2c1=O,inconclusive: -43.6%
15,Cc1noc(C)c1S(=O)(=O)N(C)C[C@H]1Oc2c(NC(=O)Nc3ccc(C(F)(F)F)cc3)cccc2C(=O)N([C@H](C)CO)C[C@@H]1C,inactive: -20.7%
16,CC(=O)c1ccc(S(=O)(=O)N(C)CC(=O)N2CCCCCC2)cc1,inactive: -2.44%
17,COc1cc(F)ccc1S(=O)(=O)N1CCN(C23CC4CC(CC(C4)C2)C3)CC1,inactive: -24.2%
18,Cc1ccc(S(=O)(=O)c2cccc(S(=O)(=O)N3CCCC3)c2)cc1S(=O)(=O)N1CCCC1,inactive: -14%
19,O=C(NC1c2ccccc2-c2ccccc21)N1CCOCC1,inconclusive: -30.1%
20,CCn1cc([N+](=O)[O-])c(C(=O)N2N=C(c3ccc(Cl)c(Cl)c3)CC2c2ccccc2O)n1 (configuration not stated),active: -85.1%
21,Cc1ccc(-n2nc3c(c2NC(=O)c2ccc(OC(C)C)cc2)CS(=O)C3)cc1 (configuration not stated),inconclusive: -48.2%
22,CSc1ccc(C(=O)N2CCC(CCC(=O)NC3CC3)CC2)cc1,inactive: -4.31%

row,SMILES,activity change
1,O=C(CN1CCN(C(C(=O)Nc2ccc(F)cc2)c2ccccc2)CC1)NC1CC1 (configuration not stated),inactive: -9.17%
2,O=C(Nc1cccc(C(=O)Nc2ccc(Cl)cn2)c1)c1ccccc1,inconclusive: -47.9%
3,Cc1c(NC(=O)C(C)C)cccc1-c1nc2ncccc2o1,inactive: 0%
4,Cc1cc2cc(CN(Cc3cccs3)Cc3nnnn3CC3CCCO3)c(=O)[nH]c2cc1C (configuration not stated),inconclusive: -31%
5,COc1ccc(N(CC(=O)NCCSCc2cccc(Cl)c2)S(C)(=O)=O)cc1Cl,inconclusive: -47.5%
6,Cc1nn(-c2ccc(C(=O)NCC(c3ccco3)N3CCCC3)cc2)c(C)c1Cl (configuration not stated),inconclusive: -42.7%
7,S=C(NCc1ccco1)Nc1ccc(Cl)c(Cl)c1,active: -101%
8,CN1CCN(c2ccc(NC(=O)c3sc4ccccc4c3Cl)cc2)CC1,inconclusive: -42.5%
9,NC(=O)c1ccccc1NC(=O)CSC1=NCCS1,inconclusive: -40.9%
10,O=C(c1ccc(S(=O)(=O)Nc2ccc(F)cc2)cc1)N1CCN(c2ccccn2)CC1,active: -54.1%
11,O=C1CSc2ccc(C(=O)Nc3cccc(S(=O)(=O)Nc4ccc(Br)cc4)c3)cc2N1,inconclusive: -32.8%
12,COc1cc(/C=C/C(C)=O)cc(OC)c1OC,inconclusive: -35.4%
13,CC(=O)c1cccc(OCc2cc(C(=O)N(C)Cc3ccc(C)o3)no2)c1,inconclusive: -35.2%
14,Cn1cc(SCC(=O)N2CCOCC2)c2ccccc21,inactive: 14.6%
15,CCOC(=O)c1c(C)[nH]c2c1-c1ccccc1C(=O)C2=O,active: -53.9%
16,CCCCN(CCCC)CC(O)COc1ccccc1Br (configuration not stated),inconclusive: -36.7%
17,CCOCCCNC(=O)CN1N=C(c2ccc(C)cc2)CCC1=O,inactive: 1.03%
18,Cc1cc(OCC(O)CN2CCN(c3ccccn3)CC2)cc(C)c1Cl (configuration not stated),active: -69%
19,O=C1CSC(=S)N1N=Cc1c[nH]c2ccc(Br)cc12,inactive: 2.55%
20,Cc1cc(NC(=O)c2cncc(Br)c2)ccc1NC(=O)c1cc2ccccc2o1,inconclusive: -39.1%
21,CCCNC(=O)C(Cc1ccccc1)NC(=O)c1ccc(-c2ccccc2)cc1 (configuration not stated),inactive: 7.68%
